Results taken from PMC11247502.
Results are given in words; binding and its absence hold for the method and conditions named. In cells and extracts the contact can be indirect. Some entries that bind do so weakly or less than the wild type.

The chains behind the UniProt entries cited, without tags or fusion partners.
UniProt Q7TMB8: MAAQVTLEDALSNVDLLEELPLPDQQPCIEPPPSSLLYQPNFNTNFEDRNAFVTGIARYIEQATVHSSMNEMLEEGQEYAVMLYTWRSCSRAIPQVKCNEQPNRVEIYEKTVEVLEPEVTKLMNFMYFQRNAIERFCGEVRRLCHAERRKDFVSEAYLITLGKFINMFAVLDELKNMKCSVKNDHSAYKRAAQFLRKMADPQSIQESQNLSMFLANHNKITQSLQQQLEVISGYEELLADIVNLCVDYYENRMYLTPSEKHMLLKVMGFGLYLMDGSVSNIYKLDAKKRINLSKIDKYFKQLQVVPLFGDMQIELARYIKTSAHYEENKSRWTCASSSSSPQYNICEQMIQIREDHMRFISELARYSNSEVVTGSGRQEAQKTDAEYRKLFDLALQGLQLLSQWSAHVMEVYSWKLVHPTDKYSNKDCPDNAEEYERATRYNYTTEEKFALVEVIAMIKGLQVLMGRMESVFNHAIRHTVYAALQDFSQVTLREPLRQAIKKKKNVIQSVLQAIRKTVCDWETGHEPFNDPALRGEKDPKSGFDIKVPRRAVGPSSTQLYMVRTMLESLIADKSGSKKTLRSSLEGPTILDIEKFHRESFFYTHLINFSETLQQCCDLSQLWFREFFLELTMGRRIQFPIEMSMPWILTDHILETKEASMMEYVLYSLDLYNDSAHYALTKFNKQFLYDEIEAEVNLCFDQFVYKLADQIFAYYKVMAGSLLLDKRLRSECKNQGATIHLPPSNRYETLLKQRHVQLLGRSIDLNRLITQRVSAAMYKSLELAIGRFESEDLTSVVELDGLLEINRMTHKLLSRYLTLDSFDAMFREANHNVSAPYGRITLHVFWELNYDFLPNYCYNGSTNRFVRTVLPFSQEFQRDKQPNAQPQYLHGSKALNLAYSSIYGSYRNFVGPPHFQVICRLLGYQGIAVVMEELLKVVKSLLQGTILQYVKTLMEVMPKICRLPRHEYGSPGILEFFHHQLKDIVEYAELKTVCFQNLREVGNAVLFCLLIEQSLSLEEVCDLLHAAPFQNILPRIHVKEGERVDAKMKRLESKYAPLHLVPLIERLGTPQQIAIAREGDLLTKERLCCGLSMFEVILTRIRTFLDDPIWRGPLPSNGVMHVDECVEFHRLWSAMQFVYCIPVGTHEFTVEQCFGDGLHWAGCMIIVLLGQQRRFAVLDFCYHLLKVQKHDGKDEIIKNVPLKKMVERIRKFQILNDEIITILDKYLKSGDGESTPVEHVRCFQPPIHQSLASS

Assays:
Test in all cases: co-IP; Lysates of Neuro2a cells expressing GFP, NTD-GFP, rICL-GFP or ICL-TET-GFP; immunoprecipitation by GFP, western blotting for endogenous proteins
[1] = target: GFP-tagged refined ICL II domain of ATP1A3 (rICL-GFP) (human) (UniProt P13637)
[2] = target: EGFP-tagged human ATP1A3 fragment consisting of an intracellular loop (ICL), two transmembrane (T) domains and an extracellular loop (E) (ICL-TET-GFP) (human) (UniProt P13637)
[3] = target: GFP-tagged N-terminal domain of ATP1A3 (NTD-GFP) (human) (UniProt P13637)

| binding [1] | binding [2] | binding [3] | Substance |
| --- | --- | --- | --- |
| binds | binds | no binding | Cyfip1 (from UniProt Q7TMB8 1-1253) |
| binds | binds | no binding | Eif4g (encoded by Eif4g1) (from UniProt Q6NZJ6 1-1600) |
| binds | binds | no binding | Pabpc1 (from UniProt P29341 1-636) |
